# Measured values as given in the supplement of paper PMC3334620.
# Over roughly 33,000 sequences, “E-score (-0.5 to 0.5)” has its median near -0.035; the highest 2% begin near 0.34. This is one part of the list.
# Target: T1, Mot3 (UniProt P54785)
# T1 sequence: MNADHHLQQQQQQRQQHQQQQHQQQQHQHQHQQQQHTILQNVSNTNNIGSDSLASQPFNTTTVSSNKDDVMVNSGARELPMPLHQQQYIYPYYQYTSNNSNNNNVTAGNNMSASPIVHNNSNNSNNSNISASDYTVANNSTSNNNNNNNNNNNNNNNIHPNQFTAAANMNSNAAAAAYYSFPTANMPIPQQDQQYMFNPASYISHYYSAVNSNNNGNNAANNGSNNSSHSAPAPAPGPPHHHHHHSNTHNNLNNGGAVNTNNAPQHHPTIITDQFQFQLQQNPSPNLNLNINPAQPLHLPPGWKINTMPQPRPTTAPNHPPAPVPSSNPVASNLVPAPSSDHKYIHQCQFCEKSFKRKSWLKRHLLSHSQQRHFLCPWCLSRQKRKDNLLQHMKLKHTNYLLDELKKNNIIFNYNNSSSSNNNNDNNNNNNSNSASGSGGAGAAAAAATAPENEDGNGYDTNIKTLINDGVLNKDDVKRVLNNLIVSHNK
# Test: PBM E-score (8-mer binding enrichment) (E-score (-0.5 to 0.5)); higher = stronger / more preferred TF binding; most listed sequences are background and not binding sites
# Settings: protein concentration: 200 nM; construct: GST-full length
# Experimental: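 Universal 'all 10-mer' protein binding microarrays (Agilent AMADID 015681) probed with GST-tagged S. cerevisiae TFs (full-length or DBD) made by in vitro transcription/translation (PURExpress), about 100-200 nM. Bound TF was detected with fluorescent anti-GST. Each ungapped 8-mer (which stands for itself and its reverse complement) is scored by the PBM enrichment score (E-score), a modified Wilcoxon-Mann-Whitney statistic from -0.5 to +0.5, computed with the Universal PBM Analysis Suite. Scale: above 0.35 generally sequence-specific binding.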
row,Sequence,PBM E-score
1,CTAGATTC,-0.0736
2,CGGGCGGC,-0.243
3,GGCGCAAA,-0.0904
4,AGCCCAAA,-0.00593
5,CCCGCCAA,-0.243
6,GCCAGAGC,-0.314
7,CGTGGGTC,-0.178
8,AGAGGGAC,-0.159
9,ATGTTTCC,0.211
10,CGAAGCGA,-0.297
11,AAACTCAA,0.0815
12,ACAGCAGT,-0.0677
13,CCTGGTGA,-0.21
14,AAGTGACT,-0.208
15,AACCCGAC,-0.0189
16,CAATCTCC,-0.225
17,ATTATCTC,0.0147
18,CAGTAGAG,-0.0196
19,CTGGCAAG,0.0662
20,AGCTTATG,-0.002
21,ATTGTTAC,0.256
22,TAAGGAAA,0.424

row,Sequence,PBM E-score
1,CGGTTCGA,-0.147
2,AGAGCCGG,-0.145
3,AGCTCGCG,-0.124
4,ACGCCGAG,-0.205
5,AGGACGCG,-0.141
6,CACGACCG,-0.0329
7,GAGTCGGA,-0.259
8,GGTGCAAC,-0.19
9,ACGTCTGC,-0.201
10,ACAAGTTA,0.131
11,AAAAGACG,0.017
12,GAAAGCCC,-0.229
13,GCTCATAC,-0.0906
14,ATGAAGAA,0.0946
15,CCTTAAAA,0.158
16,ATCCATAG,-0.206
17,CCAGTATA,-0.178
18,ATCAAGCA,-0.0875
19,TATGACGA,-0.135
20,CTGCGGTC,-0.0645
21,AGTCTATG,-0.109
22,CCGATTCC,-0.15

row,Sequence,PBM E-score
1,CCATCGGG,-0.234
2,AGGTGCAG,-0.0615
3,AGTTGTGC,0.0959
4,GGCTGGTA,-0.258
5,GATCCACC,-0.19
6,AACGTGGT,0.161
7,AGAGCCCA,-0.0746
8,GAATTCTC,-0.17
9,ATACTGGC,-0.208
10,CCATTGCG,-0.214
11,CCCTATGA,-0.141
12,TCATTGGA,0.0601
13,CTCATTAA,0.0946
14,ATGCGGTG,-0.17
15,CCTTGAAA,0.107
16,GAACCATA,-0.0833
17,TGAGACAA,-0.0961
18,AAGGCACT,0.486
19,TGAGTACA,0.153
20,ATAAGCAA,0.0348
21,CTCCCTGC,-0.379
22,ATTGCACG,0.252

row,Sequence,PBM E-score
1,ACACCTCG,-0.0776
2,GAGGACGA,-0.167
3,GCAGGAAA,0.451
4,TGATGAAA,0.179
5,CTCTCTCC,-0.221
6,GTGCGAGA,0.021
7,CGGTCGAG,-0.0964
8,CGAAGAAC,0.119
9,AGTCTCTA,-0.102
10,AATTAGTA,0.196
11,CCGGTAGC,-0.28
12,CTCAGTTA,-0.059
13,AATGTATA,0.214
14,GCATGGAA,-0.0627
15,CAGCGTTC,0.0493
16,AGAAACCT,0.0434
17,ACACCGAA,-0.0055
18,AGCGTCTA,-0.142
19,GTCCGTCA,-0.0583
20,ACTGGACA,-0.193
